# Among all 310,000 compounds or so, about 2,200 (0.71%) showed an effect of 50% or more. The effect is printed as a negative number. This is one part of the list.
# Molecular target: human ether-à-go-go-related gene (hERG) potassium channel (human, UniProt Q12809)
# Experiment: primary screen, population patch clamp on CHO cells stably expressing hERG
# Chain of human ether-à-go-go-related gene (hERG) potassium channel (Q12809 whole entry, looked up): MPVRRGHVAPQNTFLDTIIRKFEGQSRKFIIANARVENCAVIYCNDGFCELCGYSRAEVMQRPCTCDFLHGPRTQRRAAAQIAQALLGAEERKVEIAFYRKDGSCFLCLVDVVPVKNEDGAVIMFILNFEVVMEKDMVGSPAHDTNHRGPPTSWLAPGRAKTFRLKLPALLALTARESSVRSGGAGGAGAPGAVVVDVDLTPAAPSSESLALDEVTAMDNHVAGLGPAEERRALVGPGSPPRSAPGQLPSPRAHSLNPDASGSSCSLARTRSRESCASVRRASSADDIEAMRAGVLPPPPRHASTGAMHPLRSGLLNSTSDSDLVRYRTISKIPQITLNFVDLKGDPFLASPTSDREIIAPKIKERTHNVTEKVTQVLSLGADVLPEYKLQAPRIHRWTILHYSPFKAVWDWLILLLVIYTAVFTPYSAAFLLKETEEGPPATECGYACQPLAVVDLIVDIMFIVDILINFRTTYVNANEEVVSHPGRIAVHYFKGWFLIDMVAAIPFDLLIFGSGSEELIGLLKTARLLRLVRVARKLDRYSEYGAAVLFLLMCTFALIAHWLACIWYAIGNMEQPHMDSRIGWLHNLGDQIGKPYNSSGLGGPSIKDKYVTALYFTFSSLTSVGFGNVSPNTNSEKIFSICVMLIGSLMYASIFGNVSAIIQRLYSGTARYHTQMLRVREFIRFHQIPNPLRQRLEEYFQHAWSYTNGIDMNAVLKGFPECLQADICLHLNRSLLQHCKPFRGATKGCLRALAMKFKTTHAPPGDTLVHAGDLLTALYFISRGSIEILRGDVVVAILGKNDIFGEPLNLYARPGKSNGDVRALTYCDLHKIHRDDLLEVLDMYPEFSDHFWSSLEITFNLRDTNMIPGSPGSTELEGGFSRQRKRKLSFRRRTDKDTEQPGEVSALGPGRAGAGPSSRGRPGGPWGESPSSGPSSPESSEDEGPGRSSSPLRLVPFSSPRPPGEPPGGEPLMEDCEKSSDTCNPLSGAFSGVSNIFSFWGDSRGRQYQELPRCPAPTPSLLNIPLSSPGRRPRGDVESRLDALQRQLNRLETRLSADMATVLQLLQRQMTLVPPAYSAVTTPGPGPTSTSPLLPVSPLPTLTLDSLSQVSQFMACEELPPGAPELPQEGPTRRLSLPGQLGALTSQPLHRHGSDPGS
row,SMILES,"hERG current change (%, negative = inhibition) at 1uM"
1,CCn1cc(/C=C/C(=O)Nc2ccn(Cc3c(F)c(F)c(F)c(F)c3F)n2)cn1,4.65%
2,COc1cccc(NC(=O)COC(=O)c2ccccc2C(=O)N(C)c2ccccc2)c1,3.72%
3,CCCCN(CC(=O)Nc1c(C)cccc1CC)C(=O)SCC,13.2%
4,COc1cc(CC(=O)N(C)CC(=O)Nc2cc(C)ccc2C)cc(OC)c1OC,13.4%
5,Cc1nnc(NC(=O)COc2ccccc2)s1,10.4%
6,O=C(Nn1cnnc1)C(c1ccccc1)c1ccccc1,4.39%
7,C/C(=N\NC(=O)C(=O)Nc1cccc(Cl)c1)c1ccncc1,0.238%
8,O=C1NC(=Nc2ccccc2)S/C1=C\c1cccnc1,5.01%
9,Cc1nc2cc(Nc3nnc(-c4ccccc4)c4ccccc34)ccc2n1C,-17.8%
10,CCN(CC)S(=O)(=O)c1cc(NC(=O)CNc2cccc(S(=O)(=O)N3CCOCC3)c2)ccc1C,18.1%
11,CCOC(=O)c1sc(NC(=O)c2ccc(Br)o2)cc1C,-1.48%
12,CCc1ccc(NC(=O)C(=O)NNC(=O)c2ccc(OC)cc2)cc1,7.36%
13,S=C(NCc1cccnc1)Nc1ccc(Cl)cc1,6.5%
14,Cc1onc(C(=O)NC2CCCCC2)c1[N+](=O)[O-],4.12%
15,CCOc1ccc(NC(=O)CN2CCc3cc4c(cc3C2)OCCCO4)cc1OCC,-9.58%
16,COc1ccccc1N=Nc1c(C)[nH][nH]c1=O,-7.06%
17,O=C(COc1ccc(Br)cc1F)NC1CCN(Cc2ccccc2)CC1,-64.8%
18,Cn1cc(SCC(=O)NC2CCCC2)c2ccccc21,3.46%
19,CCSc1ccccc1C(=O)N1CCN(c2ccc([N+](=O)[O-])cc2)CC1,-41%
20,O=C(c1ccccc1-n1cccn1)N1CCc2c([nH]c3ccccc23)C1c1ccccn1 (stereo not drawn),10.2%
21,CCCCNC(=O)Cc1c(OC)ccc2cc(Br)ccc12,19.6%
22,Cc1ccc(-c2nn3c(C)nnc3s2)cc1NCc1c(F)cccc1Cl,10.8%
23,O=C(c1cccs1)n1nc(-c2ccc(Cl)cc2)nc1NCc1ccco1,2.26%

row,SMILES,"hERG current change (%, negative = inhibition) at 1uM"
1,O=c1[nH]c2ccccc2nc1/C=C/c1ccc(Cl)cc1,14.3%
2,Cc1ccc(-c2c(C(=O)Nc3ccccc3C)c(C)[nH]c(=S)c2C#N)o1,10.2%
3,COC(=O)CCC(=O)Nc1cc(OC)c(OC)cc1Cc1nccc2cc(OC)c(OC)cc12,15.2%
4,O=C(Cn1cnc2ccccc2c1=O)c1cccs1,8.31%
5,O=C(O)CCNS(=O)(=O)c1ccccc1Br,-3.26%
6,COc1ccc(NC(=O)Cc2ccsc2)cc1S(=O)(=O)N1CCOCC1,14.2%
7,O=C(COC(=O)c1cccc([N+](=O)[O-])c1)NCc1ccc2c(c1)OCO2,11%
8,COCC1CCN(C(=O)C2CCC(=O)N(CCc3ccc(Cl)cc3)C2)CC1 (stereo not drawn),12.6%
9,CN(C1CCCCC1)S(=O)(=O)c1ccc(NC(=O)c2ccco2)cc1,13.4%
10,CCN(Cc1ccccc1)C(=O)c1cc(-c2ccc(OC)c(OC)c2)nc2ccccc12,12.6%
11,O=C(CSc1nc2ccccc2c(=O)n1-c1ccc(F)cc1F)Nc1ccc2c(c1)CCC2,11.6%
12,O=C1OC(c2ccccc2)/C(=C(/O)c2ccccc2)C1=O (stereo not drawn),9.72%
13,Cc1cc(C)cc(N(CCC#N)C(=O)CSc2nc3nc(C)cc(C)n3n2)c1,6.85%
14,C=CCn1c(C)cc(-c2csc(NCC)n2)c1C,6.16%
15,O=C(CSCc1ccccn1)Nc1ccccc1,-0.275%
16,O=C(NC12CC3CC(CC(C3)C1)C2)c1ccc(N2CCNCC2)c([N+](=O)[O-])c1,8.55%
17,Cc1ccc2[nH]c(=O)c3cc(C(=O)N(CCCOC(C)C)Cc4ccco4)sc3c2c1,11.1%
18,O=C(COc1ncnc2sccc12)N1CCN(S(=O)(=O)c2ccc(Cl)cc2)CC1,4.25%
19,CCOC(=O)c1cnc(SCc2cccc3ccccc23)nc1N,11.3%
20,COc1ccccc1C(=O)NC(=O)COC(=O)Cc1ccc(F)cc1,8.35%
21,CC(=O)c1cccc(NC(=O)CC2S/C(=N/N=C/c3ccccc3)NC2=O)c1 (stereo not drawn),6.93%
22,Cc1cc(-c2csc(NC(=O)c3ccccc3C(F)(F)F)n2)c(C)n1Cc1ccccc1,14.1%

# From paper PMC4336329 (PLoS ONE, 2015)
